Screen size: about 270,000 compounds; about 620 (0.23%) were called active. The shares of active, inactive and inconclusive entries below differ from those in the screen. Calls come from the whole dose curve; as a rule, active = well fitted inhibition curve with a large enough effect in the polarisation, with a control signal flat (not every such curve was filed as active); inconclusive = small, poorly fitted or top-dose-only effect, or effect the other way, or a change in a side signal; inactive = no such curve, though single readings can be large or run the other way; the % refers to the polarisation. Potencies beside an inconclusive call are fits to weak or partial responses and may not hold up. A note “side channel” means that the fit belongs to a control or component signal, not to the main read-out.
These molecules were tested against Menin (Homo sapiens) (UniProt O00255) (assay: qHTS Assay for Inhibitors Targeting the Menin-MLL Interaction in MLL Related Leukemias: Competition With Texas Red Labeled MLL-derived Mutant Peptide). Conditions: fluorescence polarization; FP activity change, negative = inhibition: at 61.6 µM (top of the series).
UniProt O00255, sequence (O00255 whole entry, looked up): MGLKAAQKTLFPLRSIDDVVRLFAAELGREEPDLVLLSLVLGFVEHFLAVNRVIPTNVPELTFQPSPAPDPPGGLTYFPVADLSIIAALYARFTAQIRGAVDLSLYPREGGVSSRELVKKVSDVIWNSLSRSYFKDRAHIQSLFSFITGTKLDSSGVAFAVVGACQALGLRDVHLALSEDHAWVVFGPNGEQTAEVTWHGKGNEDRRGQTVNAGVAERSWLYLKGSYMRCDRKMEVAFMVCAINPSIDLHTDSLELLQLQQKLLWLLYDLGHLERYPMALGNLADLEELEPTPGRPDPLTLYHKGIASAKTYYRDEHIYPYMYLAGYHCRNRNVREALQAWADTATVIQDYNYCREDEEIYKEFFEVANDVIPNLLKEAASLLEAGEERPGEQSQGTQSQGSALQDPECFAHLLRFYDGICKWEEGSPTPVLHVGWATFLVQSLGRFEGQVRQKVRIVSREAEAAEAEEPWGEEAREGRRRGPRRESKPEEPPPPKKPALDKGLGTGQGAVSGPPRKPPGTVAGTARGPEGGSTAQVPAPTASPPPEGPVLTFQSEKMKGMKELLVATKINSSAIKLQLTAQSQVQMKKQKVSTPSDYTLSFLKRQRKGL
With `CC(C)CC(C(=O)N1CCc2ccccc2C1)N1C(=O)c2ccccc2C1=O` (configuration not stated) the Potency was inconclusive: 7.94 µM [fluorescent, side channel, full curve, poor fit]. `COc1ccc(C(=O)Oc2c(CN3CCOCC3)cc(Cl)c3cccnc23)cc1` was tested, and the “FP activity change, negative = inhibition” value was inactive: 6.06%. With `C/C(=N\NS(=O)(=O)c1ccc(Br)cc1)c1cccs1` the Potency was inconclusive: 25.1 µM [quencher, side channel, single point]. `COc1ccc(CCNC(=O)c2ccc(Cl)nc2)cc1` was tested, and the Potency was inconclusive: 44.7 µM [inhibitor, partial curve, poor fit]. `COc1ccc(C(=O)N2CCc3[nH]nc(-c4ccccc4)c3C2)cc1` was tested, and the “FP activity change, negative = inhibition” value was inactive: 3.3%. For `Fc1cccc(Oc2nc3ccccc3n3cccc23)c1`, the “FP activity change, negative = inhibition” value was inactive: -15.4%. `COC(=O)CSc1nnc2n(C3CCCCC3)c(=O)c3c4c(sc3n12)CCCC4` was tested, and the Potency was inconclusive: 15.8 µM [fluorescent, side channel, partial curve]. `CC(C)CC[n+]1ccccc1/C=C/c1ccc(N(C)C)cc1` was tested, and the Potency was inconclusive: 10 µM [fluorescent, side channel, partial curve]. With `CN(C)c1ccc(/C=C(/NC(=O)c2ccccc2)C(=O)N/N=C/c2ccc([N+](=O)[O-])c(O)c2)cc1` the Potency was inconclusive: 14.1 µM [quencher, side channel, partial curve]. In the case of `CCCS(=O)(=O)N1CCCC(C(=O)NCCCN(CC)c2cccc(C)c2)C1` (configuration not stated), the Potency is reported as inconclusive: 14.1 µM [inhibitor, partial curve]. `CCCCc1ncc(CN2CCC(n3nccc3NC(=O)c3ccccc3OC)CC2)[nH]1` was tested, and the “FP activity change, negative = inhibition” value was inactive: -27.3%. For `NC(=O)CSCc1ccc(Br)cc1`, the Potency was inconclusive: 7.94 µM [inhibitor, full curve]. For `C#C[C@@]1(O)CC[C@@H]2[C@@H]3CCC4=CC(=O)CC[C@@H]4[C@H]3CC[C@]21C`, the “FP activity change, negative = inhibition” value was inactive: 2.14% [at 24.8 µM]. With `Cc1ccc(C)c(NC(=S)/C(=C(\[O-])c2ccc(Cl)s2)[n+]2ccccc2)c1` the Potency was inconclusive: 39.8 µM [quencher, side channel, single point]. With `O=c1cc(N2CCCCC2)c(-c2ccccc2)nn1Cc1cccc(Cl)c1` the Potency was inconclusive: 3.16 µM [fluorescent, side channel, full curve, poor fit]. In the case of `CCCCn1c(-c2cccc(F)c2)nc2c1c(=O)[nH]c(=O)n2CC(C)C`, the Potency is reported as inconclusive: 39.8 µM [quencher, single point]. For `O=c1oc(-c2ccc([N+](=O)[O-])cc2)nc2ccc(O)cc12`, the Potency was inconclusive: 22.4 µM [quencher, partial curve, poor fit]. For `N/C(=N\OC(=O)C1CCCCC1)c1cccc(Br)c1`, the Potency was inconclusive: 25.1 µM [inhibitor, single point]. In the case of `CN(C)/C=C(\C(=O)c1ccc(F)cc1F)c1nnnn1-c1ccccc1`, the “FP activity change, negative = inhibition” value is reported as inactive: 2.92%. `CNC(=O)c1cccc(N2CCCC2=O)c1` was tested, and the Potency was inconclusive: 1.78 µM [inhibitor, full curve, poor fit]. In the case of `CC(C)(C)c1cc(CP(=O)(c2ccccc2)c2ccccc2)cc(C(C)(C)C)c1O`, the Potency is reported as inconclusive: 1.78 µM [inhibitor, partial curve]. With `O=C(Nc1nnc(Cc2ccc(Cl)cc2)s1)c1cccnc1` the Potency was inconclusive: 39.8 µM [inhibitor, single point]. In the case of `N#C/C(=C\c1ccc(O)c(Br)c1)C(=O)NCc1ccccc1`, the Potency is reported as inconclusive: 25.1 µM [quencher, side channel, single point]. `O=C(C1=C[C@@H]2[C@H]3C(=O)N(c4cccc(Cl)c4)C(=O)[C@H]3[C@@H](C(=O)c3ccc(Cl)cc3)N2C=C1)c1ccccc1` was tested, and the Potency was inconclusive: 15.8 µM [quencher, side channel, partial curve]. `CCn1c2ccccc2c2cc(NC(=O)N3CCOCC3)ccc21` was tested, and the Potency was inconclusive: 31.6 µM [quencher, side channel, single point]. With `Cc1ccc(-c2nc3cnccn3c2Nc2c(C)cccc2C)o1` the FP activity change, negative = inhibition was inactive: 4.54% [at 11.7 µM]. In the case of `O=c1oc(-c2cccs2)nc2ccc(Br)cc12`, the Potency is reported as inconclusive: 39.8 µM [inhibitor, single point]. For `CC(=O)c1cccc(Nc2nc(-c3sc(C)nc3C)cs2)c1`, the Potency was inconclusive: 3.16 µM [quencher, side channel, partial curve]. For `O=C(O)c1cc(OCc2ccccc2)cc(OCc2ccccc2)c1`, the Potency was inconclusive: 39.8 µM [quencher, side channel, single point]. In the case of `Cc1c(Cc2ccccc2)sc(NC(=O)/C=C/c2cccc3ccccc23)c1C(N)=O`, the Potency is reported as inconclusive: 6.31 µM [quencher, side channel, partial curve]. With `CC(OC(=O)c1cc2sccc2n1C)C(=O)NCc1ccc2c(c1)OCO2` (configuration not stated) the Potency was inconclusive: 39.8 µM [fluorescent, side channel, single point]. With `CCOC(=O)N1CCN(S(=O)(=O)c2ccc(C(=O)Nc3sc4c(c3C#N)CCC4)cc2)CC1` the Potency was inconclusive: 2.82 µM [quencher, side channel, full curve]. For `CCOC(=O)C1(CCc2ccccc2)CCN(C(=O)c2cccc(C)n2)CC1`, the Potency was inconclusive: 2.51 µM [fluorescent, side channel, full curve]. For `COc1cccc(Cn2nnc(C(=O)Nc3cc(Cl)ccc3OC)c2N)c1`, the Potency was inconclusive: 20 µM [quencher, side channel, partial curve]. In the case of `C#CCOCCOCCOCCNc1nc(N2CCN(C(=O)[C@H](Cc3ccc(O)cc3)n3cc([C@@H](N)C(C)CC)nn3)CC2)nc(N2CCN(C(=O)[C@H](Cc3cc4ccccc4[nH]3)n3cc([C@@H](N)C(C)CC)nn3)CC2)n1` (some centres not stated), the Potency is reported as inconclusive: 1.41 µM [fluorescent, side channel, full curve]. In the case of `O=C(CNc1cccc([N+](=O)[O-])c1)N/N=C/c1ccc(F)cc1`, the Potency is reported as inconclusive: 25.1 µM [quencher, side channel, single point]. For `O=C(NN1CCOCC1)c1cc(-c2ccc(Br)s2)nc2ccccc12`, the Potency was inconclusive: 25.1 µM [fluorescent, side channel, single point].

From PubChem BioAssay AID1768 (National Center for Advancing Translational Sciences (NCATS), 2009)
Potency is the fitted concentration of half-maximal effect; tags give direction and shape of the fitted curve or compound fluorescence and quenching.
Throughout, for FP activity change, negative = inhibition: % of control where 0% means no effect.
